Data as given in PubChem BioAssay (NCATS).
Inconclusive means that the source gave no clear call. Such entries were picked first, then a sample of the others. For some assays here: Potencies beside an inconclusive call are fits to weak or partial responses and may not hold up. Activity calls are given as the source filed them. Calls follow the shape of the dose curve; as a rule, active = well fitted curve in the direction sought with a large enough effect; inconclusive = small, poorly fitted or top-dose-only effect, or another doubt; inactive = no such curve, though single readings can be large; an effect the other way counts as inactive or inconclusive.

Experiments:
[1] = qHTS Assay for Identifying Gametocytocidal Compounds (AID 743244);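 also: % is scaled to controls: 0 for no effect and ±100 for the full control effect; actives lower the fluorescent signal which means gametocytes are killed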; conditions: P. falciparum 3D7 stage III-V gametocytes, alamarBlue, 72 h; max response: stronger effect = lower value
In short: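 Late gametocytes (III–V), P. falciparum 3D7; 72 h drug, then 24 h alamarBlue; resazurin reduction read by fluorescence.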

[2] = P-glycoprotein substrates identified in KB-8-5-11 adenocarcinoma cell line, qHTS therapeutic library screen (AID 1346987); also: potency is read from the fitted curve at half-maximal effect; nearly all actives have a fitted effect of over 65% in size
In short: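 Compounds are pinned in dose-response onto KB-8-5-11 cells (500 cells/well, colchicine-free medium) and left 72 h at 37 degree C. CellTiter-Glo luminescence then yields AC50 values.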

[3] = qHTS of pediatric cancer cell lines to identify multiple opportunities for drug repurposing: Primary screen for SK-N-MC cells (AID 1347093); conditions: SK-N-MC viability, CellTiter-Glo luminescence, 48 h; activity change, negative = cytotoxic: at 46 µM (top of the series);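 also: plate controls were DMSO neutral control for no effect and bortezomib for full effect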
In short: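 Metabolically active cells were quantified by ATP-dependent luminescence (CellTiter-Glo, 15 min at room temperature) following 48 h treatment. Cells had been plated at 500-1,000 per well and settled for 5 h beforehand.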

[4] = qHTS of pediatric cancer cell lines to identify multiple opportunities for drug repurposing: Primary screen for Saos-2 cells (AID 1347097); also: potency is read from the fitted curve at half-maximal effect; nearly all actives have a fitted effect of over 40% in size
In short: (§1)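 Viability was measured as metabolically active cells after 48 hours of treatment, read by CellTiter-Glo luminescence. Compounds were tested at multiple final concentrations, giving concentration-response curves.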

[5] = qHTS of pediatric cancer cell lines to identify multiple opportunities for drug repurposing: Primary screen for BT-12 cells (AID 1347101);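 also: plate controls were DMSO for no effect and bortezomib positive control for full effect; nearly all actives have a fitted effect of over 25% in size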
In short: (§2)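 Cells (500-1,000/well) rested 5 h, then received compounds for 48 h; metabolically active cells were measured by CellTiter-Glo luminescence. Final concentrations spanned up to 46 µM (MIPE, 11-point) or 0.59 nM-46 µM (NPC, 8-point) in primary screens, 11-point in follow-ups.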

[6] = qHTS of pediatric cancer cell lines to identify multiple opportunities for drug repurposing: Primary screen for Rh18 cells (AID 1347102); also: % is scaled to controls: 0 for no effect and ±100 for the full control effect; nearly all actives have a fitted effect of over 65% in size
In short: (§3)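 Cells (500-1,000/well) in growth media were settled 5 h at 37 degrees C, then given compounds for 48 h. Viability was read as CellTiter-Glo luminescence. Primary runs used MIPE at 11 points (0.78 nM-46 µM) and NPC at 8 points (0.59 nM-46 µM); follow-ups used 11 points.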

[7] = qHTS of pediatric cancer cell lines to identify multiple opportunities for drug repurposing: Primary screen for OHS-50 cells (AID 1347103); also: potency is read from the fitted curve at half-maximal effect; nearly all actives have a fitted effect of over 40% in size
In short: as §2

[8] = qHTS of pediatric cancer cell lines to identify multiple opportunities for drug repurposing: Primary screen for RD cells (AID 1347104); conditions: RD rhabdomyosarcoma viability, CellTiter-Glo luminescence, 48 h; activity change, negative = cytotoxic: at 46 µM (top of the series); also: potency is read from the fitted curve at half-maximal effect; nearly all actives have a fitted effect of over 55% in size
In short: as §1

[9] = qHTS of pediatric cancer cell lines to identify multiple opportunities for drug repurposing: Primary screen for Rh30 cells (AID 1347107); also: % is scaled to controls: 0 for no effect and ±100 for the full control effect; nearly all actives have a fitted effect of over 75% in size
In short: as §3

[10] = qHTS of pediatric cancer cell lines to identify multiple opportunities for drug repurposing: Primary screen for Rh41 cells (AID 1347108);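 also: luminescence drop marks cytotoxic hits; nearly all actives have a fitted effect of over 70% in size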
In short: as §1

[11] = test system: Zika virus NS2B-NS3 protease; assay: Primary screen GU AMC qHTS for Zika virus inhibitors (AID 1347154);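 also: 0% = no-inhibitor control and -100% = no-enzyme control; nearly all actives have a fitted effect of over 70% in size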
In short: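 Unlinked Zika NS2B hydrophilic domain/NS3 protease domain noncovalent complex (25 nM final) in 10 mM Tris-HCl pH 8.0, 0.01% Tween 20, with AMC peptide substrate. Fluorescence (ex 340, em 450 nm) change over 15 min, room temperature; percent inhibition fitted to 4-parameter Hill equation.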

[12] = Primary qHTS for small molecule stabilizers of the endoplasmic reticulum resident proteome: Secreted ER Calcium Modulated Protein (SERCaMP) assay (AID 1508630); conditions: SH-SY5Y GLuc-SERCaMP (Gaussia luciferase released on ER calcium loss) secretion, thapsigargin, luminescence; activity change, negative = inhibition: at 38.4 µM (top of the series) unless noted; also: potency is read from the fitted curve at half-maximal effect
In short: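 The SH-SY5Y reporter protocol was run at 3 concentrations up to 38.3 uM (primary) or 11 concentrations (follow-up): 16 h compound, 100 nM thapsigargin for 4 h, then extracellular luciferase luminescence.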

[13] = Primary qHTS for inhibitors of nuclear receptor binding SET domain protein 2 (NSD2) in an isogenic RCH-ACV NSD2 p.E1099K mutant (9B) (AID 1645876); also: potency is read from the fitted curve at half-maximal effect; nearly all actives have a fitted effect of over 70% in size
[14] = Primary qHTS for inhibitors of nuclear receptor binding SET domain protein 2 (NSD2) in an RCH-ACV wild type WT cells (2C) (AID 1645877); conditions: activity change, negative = cell killing: at 44.9 µM (top of the series) unless noted; also: potency is read from the fitted curve at half-maximal effect; nearly all actives have a fitted effect of over 70% in size
[15] = test system: HEK293; assay: Cytotoxic Profiling of Annotated Libraries Using Quantitative High-Throughput Screening (AID 1296008); conditions: Five cell lines viability, CellTiter-Glo ATP luminescence, 48-72 h; max response: stronger effect = lower value; also: potency is read from the fitted curve at half-maximal effect; nearly all actives have a fitted effect of over 60% in size
In short: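 Compounds were pin-transferred onto cells and incubated 48 or 72 hr at 37 degree Celsius, 95% humidity. CellTiter-Glo was added, plates sat 10 min at room temperature, then ATP-coupled luminescence was imaged as the viability read-out.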

[16] = test system: CASKI; assay: Primary qHTS to identify gynecologic anti-cancer compounds using libraries of approved drugs and bioactive compounds (AID 1345084); conditions: Gynecologic cancer cell panel viability, ATPlite luminescence, 48 h; series mostly up to 57.5 µM; also: potency is read from the fitted curve at half-maximal effect; nearly all actives have a fitted effect of over 55% in size
In short: (§4)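 In this quantitative HTS, cell killing is estimated from loss of ATP-dependent luciferase light. Cells see five compound concentrations over a 48 h exposure.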

[17] = test system: OV90; assay: as above; conditions: Gynecologic cancer cell panel viability, ATPlite luminescence, 48 h; series mostly up to 57.5 µM
In short: as §4

[18] = test system: SKOV3; assay: as above; conditions: Gynecologic cancer cell panel viability, ATPlite luminescence, 48 h; series mostly up to 57.5 µM
In short: as §4

[19] = test system: MKL-2; assay: qHTS assay to identify novel small-molecules to repurpose for Merkel cell carcinoma treatment (AID 1296009); conditions: MCC and control cell lines, CellTiter-Glo viability, 72 h; activity change, negative = cytotoxicity: at 46 µM (top of the series); also: % is scaled to controls: 0 for no effect and ±100 for the full control effect; nearly all actives have a fitted effect of over 60% in size
In short: (§5)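 Viability readout: ATP luminescence (CellTiter-Glo) after 72 hr drug exposure at 37 degree celsius. Dose-response format was 8 points for NPC and 11 points for MIPE; data normalized to in-plate controls.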

[20] = test system: UISO; assay: as above; conditions: MCC and control cell lines, CellTiter-Glo viability, 72 h; activity change, negative = cytotoxicity: at 46 µM (top of the series)
In short: as §5
Tags tell the direction and shape of the fitted curve.

CCN(CC)CCOC(=O)C(Cc1cccc2ccccc12)CC1CCCO1 (stereo not given)
inactive: max response [1] 7.43% | Potency [5] | Potency [6] | Potency [9] | Potency [10] | Potency [11] | Potency [19] | Potency [20]
inconclusive: Potency [2] 14 µM [inhibitor, single point] | activity change, negative = cytotoxic [3] -42.9% [cytotoxic] | Potency [4] 13.3 µM [cytotoxic, partial curve] | Potency [7] 27.6 µM [cytotoxic, partial curve, poor fit] | Potency [8] 26.6 µM [cytotoxic, single point] | Potency [12] 28.2 µM [inhibitor, single point] | Potency [13] 29.9 µM [inhibitor, partial curve, poor fit] | Potency [14] 23.7 µM [inhibitor, single point] | Potency [15] 33.5 µM [inhibitor, single point] | Potency [16] 35.5 µM [cytotoxic, single point] | Potency [17] 39.8 µM [cytotoxic, single point] | Potency [18] 39.8 µM [cytotoxic, single point]
